T1: IL2 receptor on human Treg (CD4+CD25high) cells (human, UniProt P01589 22-272; P14784 27-551; P31785 23-369)
T1 sequence (looked up) 1: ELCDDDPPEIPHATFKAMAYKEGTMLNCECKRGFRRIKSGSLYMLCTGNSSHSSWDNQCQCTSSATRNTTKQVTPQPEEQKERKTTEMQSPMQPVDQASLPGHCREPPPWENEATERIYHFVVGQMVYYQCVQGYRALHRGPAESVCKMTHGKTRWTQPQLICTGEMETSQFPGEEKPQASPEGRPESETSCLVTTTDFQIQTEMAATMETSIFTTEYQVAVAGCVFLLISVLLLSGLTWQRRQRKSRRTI
T1 sequence (looked up) 2: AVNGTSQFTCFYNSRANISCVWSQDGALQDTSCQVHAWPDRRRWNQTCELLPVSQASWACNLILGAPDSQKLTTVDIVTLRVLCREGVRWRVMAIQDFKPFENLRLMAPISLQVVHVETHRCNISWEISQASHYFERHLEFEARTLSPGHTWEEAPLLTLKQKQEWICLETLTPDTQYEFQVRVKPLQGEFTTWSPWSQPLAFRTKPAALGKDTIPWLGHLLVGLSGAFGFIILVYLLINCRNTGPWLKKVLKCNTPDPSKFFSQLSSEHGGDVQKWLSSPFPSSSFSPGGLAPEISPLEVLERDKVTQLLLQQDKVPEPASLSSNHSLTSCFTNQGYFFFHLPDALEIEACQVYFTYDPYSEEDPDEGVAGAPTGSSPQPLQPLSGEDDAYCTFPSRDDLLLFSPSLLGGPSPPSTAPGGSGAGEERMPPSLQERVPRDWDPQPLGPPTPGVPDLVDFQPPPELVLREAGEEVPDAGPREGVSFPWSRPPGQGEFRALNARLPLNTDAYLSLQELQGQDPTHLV
T1 sequence (looked up) 3: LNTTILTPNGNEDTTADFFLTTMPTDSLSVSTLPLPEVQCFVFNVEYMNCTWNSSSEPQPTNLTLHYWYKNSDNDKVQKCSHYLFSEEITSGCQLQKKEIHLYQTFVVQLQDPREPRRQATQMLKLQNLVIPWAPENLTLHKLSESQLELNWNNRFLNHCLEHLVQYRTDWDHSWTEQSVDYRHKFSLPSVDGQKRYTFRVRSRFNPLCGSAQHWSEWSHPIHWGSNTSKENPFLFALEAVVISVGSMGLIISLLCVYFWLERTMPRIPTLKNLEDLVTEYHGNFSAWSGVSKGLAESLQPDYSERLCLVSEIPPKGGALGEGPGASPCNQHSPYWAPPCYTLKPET

T2: IL2 receptor on human non-Treg (CD4+CD25-) cells (human, UniProt P14784 27-551; P31785 23-369)
T2 sequence (looked up) 1: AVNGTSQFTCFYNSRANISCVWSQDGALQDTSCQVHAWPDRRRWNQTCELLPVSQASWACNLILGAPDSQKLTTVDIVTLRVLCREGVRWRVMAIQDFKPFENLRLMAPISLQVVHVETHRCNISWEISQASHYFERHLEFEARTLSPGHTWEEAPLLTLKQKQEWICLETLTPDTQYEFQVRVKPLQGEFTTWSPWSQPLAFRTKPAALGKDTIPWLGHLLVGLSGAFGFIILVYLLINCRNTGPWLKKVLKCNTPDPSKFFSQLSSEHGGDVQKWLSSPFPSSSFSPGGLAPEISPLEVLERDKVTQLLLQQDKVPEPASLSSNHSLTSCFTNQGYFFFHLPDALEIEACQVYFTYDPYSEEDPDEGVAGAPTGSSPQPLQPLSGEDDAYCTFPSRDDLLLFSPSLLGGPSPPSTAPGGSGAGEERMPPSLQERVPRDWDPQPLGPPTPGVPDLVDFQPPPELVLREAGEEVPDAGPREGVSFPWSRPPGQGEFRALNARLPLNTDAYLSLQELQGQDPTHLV
T2 sequence (looked up) 2: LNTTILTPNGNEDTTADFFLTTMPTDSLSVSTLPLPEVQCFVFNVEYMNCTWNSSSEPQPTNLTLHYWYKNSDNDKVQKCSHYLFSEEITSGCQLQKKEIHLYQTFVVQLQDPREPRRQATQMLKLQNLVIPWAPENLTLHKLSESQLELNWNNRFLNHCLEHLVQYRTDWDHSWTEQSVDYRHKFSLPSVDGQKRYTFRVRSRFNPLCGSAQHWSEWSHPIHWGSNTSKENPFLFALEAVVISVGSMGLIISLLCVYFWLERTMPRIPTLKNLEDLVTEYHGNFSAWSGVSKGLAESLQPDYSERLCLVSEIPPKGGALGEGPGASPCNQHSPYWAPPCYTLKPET


How the values were obtained:
[1] = biological target: T3, human PDL1 transgenically expressed on DLD1 cells (human, UniProt Q9NZQ7); assay: FACS on DLD1 cells expressing human PDL1, fluorescent anti-human-IgG detection; mean, SD 782
T3 construct: whole, on cells; also called cell surface PDL1; PDLL
T3 sequence (Q9NZQ7 19-290): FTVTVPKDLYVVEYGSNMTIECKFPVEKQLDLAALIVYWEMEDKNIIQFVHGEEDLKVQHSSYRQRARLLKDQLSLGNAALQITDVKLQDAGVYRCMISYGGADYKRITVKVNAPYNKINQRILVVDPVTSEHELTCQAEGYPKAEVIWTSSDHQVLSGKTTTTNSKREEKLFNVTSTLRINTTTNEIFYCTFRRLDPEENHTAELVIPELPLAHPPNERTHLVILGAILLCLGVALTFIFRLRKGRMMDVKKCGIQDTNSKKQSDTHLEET
Method: (§1) To test the ability of the proteins to bind cell surface PDL1, we used DLD1 cells expressing transgenically expressed human PDLL. […] Briefly, 10⁵ cells were incubated with different concentrations of the protein for 30 minutes at 4° C. Cells were washed with PBS and incubated with a fluorescent, anti-human-IgG antibody for 30 minutes at 4° C. Cells were again washed with PBS and binding was detected by FACS.

[2] = biological target: T1, IL2 receptor on human Treg …; assay: cell-based or functional assay
[3] = biological target: T2, IL2 receptor on human non-Treg …; assay: cell-based or functional assay
[4] = biological target: T3, human PDL1 transgenically expressed on …; assay: FACS on DLD1 cells expressing human PDL1, fluorescent anti-human-IgG detection; mean, SD 1294
Method: as §1

EC50 [1] | EC50 for Stat5 phosphorylation in Treg (CD4+CD25high) cells, median [2] | EC50 for Stat5 phosphorylation in non-Treg (CD4+CD25-) cells, median [3] | EC50 [4] | Binder
2440 pM | 149 pM | 198 pM |  | E1M1 (E1 anti-PDL1 antibody fused to MutIL2 IL2M1: F42K, Y45R) (other, The heavy and light entries include the secretory leader) heavy: QIQLVQSGAEVKMPGASVTISCEASGYNFISYYIHWVRQAPGQGLEWMGFVVPSGGAAGYTQKFQGRLTVTRDTSTSTVYMDLNSLTSDDTAVYYCVREMSGGWFDFWGQGTLVTVSS[sequence of human IgG1 constant region not given]GGGGSGGGGSGGGGSGGGGSG[sequence of about 150 residues not given] light: DIVMTQSPSSLSASVGDRVTITCRASQGIRNDLGWYQQKPGKAPKLLIYAASTLQSGVPSRFSGSGSGTDFTLTISSLQAEDVAVYYCQQYYSTPLTFGPGTKVDIKRTVAAPSVFIFPPSDEQLKSGTASVVCLLNNFYPREAKVQWKVDNALQSGNSQESVTEQDSKDSTYSLSSTLTLSKADYEKHKVYACEVTHQGLSSPVTKSFNRGEC
 | 198 pM | 207 pM | 3200 pM | E1M2 (E1 anti-PDL1 antibody fused to MutIL2 IL2M2: F42A, Y45R) (other, The heavy and light entries include the secretory leader) heavy: QIQLVQSGAEVKMPGASVTISCEASGYNFISYYIHWVRQAPGQGLEWMGFVVPSGGAAGYTQKFQGRLTVTRDTSTSTVYMDLNSLTSDDTAVYYCVREMSGGWFDFWGQGTLVTVSS[sequence of human IgG1 constant region not given]GGGGSGGGGSGGGGSGGGGSG[sequence of about 150 residues not given] light: DIVMTQSPSSLSASVGDRVTITCRASQGIRNDLGWYQQKPGKAPKLLIYAASTLQSGVPSRFSGSGSGTDFTLTISSLQAEDVAVYYCQQYYSTPLTFGPGTKVDIKRTVAAPSVFIFPPSDEQLKSGTASVVCLLNNFYPREAKVQWKVDNALQSGNSQESVTEQDSKDSTYSLSSTLTLSKADYEKHKVYACEVTHQGLSSPVTKSFNRGEC
